The source gives no read counts; variants with many changes may rest on few reads.
B1: LINE1-mini (parent)
chain: GGCAGAGCUCAACACAGCGUGGCAAAGUGGCUGUGGCUAGACUGCC

Variants of: B1
Test: self-cleavage, relative activity (ratio to wild type); higher = more cleavage; in vitro, sequencing; the parent is a self-cleaving ribozyme

Variant	self-cleavage
C18A C31G U34A C46G	0.02
A4U A11G A12G C13U	0.03
A14U G19U G27U	0.09
G2A G7U A16C G21A C45U C46U	0.1
G7A U9A A12C U20A G27C G40A A41C	0.02
C3U G21A C31A	0.04
G35C C37G C46U	0.04
A6U C15A U20G U34C	0.04
G17A C18A G22U	0.14
A14C A25U G40A	0.01
A6U G17A G35C G44A	0.05
C3A G5A C10U G17U G19C G40U	0.11
A6G C10A U20C G21A G27U U28G U32C G33A G36A	0.01
G5U G17A G29C G35C	0.01
G29U G30C A41U	1.08
G1U G5U C18G G36C G44C	0
A25U C31U C37A	0.11
A11C C18A G19U G30U U38G G40C	0
G7U C18U U32G	0.06
G22U C23U G36U G40A	0.32
G36A G40C A41U	0.41
U34C G36C G44U C46G	0.01
C3A C15U G29A A39C	0.09
A11C G36A A39U	0.01

Variant	self-cleavage
G22U U28G G44U	0.5
C3U C37U A41U	0.04
G7A G17C G40U	0.32
A6U C10G C15U C37A A39C	0
C23G U34G A39C	0.01
G1A A11G C18U	0.11
C3A G5A A16C G27A G44U	0.27
C13G G17C G21A	0.02
G2C C10U G33C	0.02
G27A A41C C45U	0.06
C13U G22C U28C	0.04
G1C C8G C15G G33A	0.01
A6G C23U A25U G35U G44A	0.07
C15U G33A G36U G44C	0.12
A12G G21U C37G	0.03
G2U A14G U43G	0
A11C A12U C13A U38A	0.05
C8U G40U G44C	0.34
A12U C13G A41C	0.08
A12U G22C A25U	0.22
C23G U28A G35A G40A	0.23
C8A C15U A39C G44U	0.18
C3A G7A G30U U34C C42G	0.67
A6U C23A G35C	0.06

Variant	self-cleavage
A6C G19U G30A	1.83
C3G C13A A25G U28G U43C C46G	0.04
U9C A12U U20C G30A C31A G40U C46U	0
G5A A12U C31U A41C	0
G2A A6C A26C G27C U32C	0.02
A14C A25G U34A G36C C42G	0.01
G5U C18A G30C	0.11
C13U A16C A26G	0.07
G2C C23A A26C G36A U38G	0.02
G2C C10G G36A A39G C42G	0.01
G30C C37G U38G A41C C46U	0
G2C U9A C42A C46A	0.14
G2A A24U U32G	0.12
A14U G29U G40U A41C	0.15
C10G G27A G29A G40A	0.03
C23U G36A C46G	0.08
A14U G22C A41U	0.11
G1A A4U U20A G35A U38A C42A	0.02
C15G A24U C42U G44U	0.02
A6G G29C A41C G44A	0.02
C8G G27A G30U	0.06
C8G C18G U28G	0.02
C3A A14G A25U	0.63
G1U U9C C37G	0.04

Variant	self-cleavage
A6U A12U A26U G40U C42A C46U	0.02
A4U A11C A12G A26U	0.03
G5C A14G A41C C46A	0.38
C3U G7C G29U	0.07
G17U G29A G30C U43A	0.01
U9G C13G A25C A26U G27C C31A C37A G40A	0.02
C13U U20G G30A U34A G36A C45U	0.05
G1A C10G A16C G22C C23A G27A	0.08
G1U G2U C3A U20C G21C	0.05
A16C G19U G33C	0.02
C13A G17C G21C C46A	0.09
G5U G22U G35U	0.38
U9G A24G G44A	0.03
A4U G5C A11G C15G U20A U38A	0.01
G2C C8A G19C G33A A39U G40A	0.02
C15A G19A G21C C31U G40C	0.02
C8A C15U G22A G35A U38A G44C	0.1
C8G U34C G44C	0.01
G22C U28G G29U C46U	0.66
C8G C15G G21C	0.02
U20C C23A A26G C45A	0.18
G5C G29A G44C	0.07
G1C U9G G27C G30C	0.01
C10G C23G G36U C42G	0.01

Variant	self-cleavage
A14C G29U G33U G40A C45G	0.06
A14G G29C C31G	0.01
G1A G2A A26C C31G	0.14
U20A U28A G30A G33A	0.07
G17A A26G G30U C37U	0.1
G7U A24C A25C G27U	0.08
G19A C23U C42U	0.41
A12U G30U U32G	0.05
G5A G19A G33U	0.13
G1A U9G G35A	0.06
C8U A16U G17C C18G C31G	0.04
G7A C13A G17U A25U U34A	0.07
A4U C10G A25G A41U	0
A6C A11U C13A G35U	0.1
G5U C10U U28G G29U U43C	0.01
A6C C15G G30U C37G C46U	0.01
A4U G36U G44U	0.17
C8G A12U U20G C45U	0.04
G7A A11C G17A C18A U20G	0.01
G2C C13U C23G G29C G35U U43C	0.03
C13U A26C G40C	0.03
C13A G21A C31A	0.03
C23A A26U G27U G36A	0.04
G21U U34C A41U	0.35

Variant	self-cleavage
G5A C15U G21A A39G C45A	0.03
G2A G17U A24C C46A	0.08
G2C U9A C18G G19A U20G G27A G33C	0.04
G2U C3G G30U G40A	0.22
G2C G29A U34C	0.02
G17A A24U C42A	0.04
U9A A11C G21C G22C A25G G27U C37G	0.01
A4G G5A C15G	0.03
A16U C18G A26U U32G	0.09
G2C U28A U32G	0.02
G17A G19A G27A U34C	0.03
A6G C8U A16U G17U A24U U34A G40A C45G	0
C8U C10G A14C	0
A4U A6U C23U G27A	0.07
A4U U9A G19U G35A	0.08
G2U C8U C15U G36U A39U U43C	0.04
C3G G17C G33C C37G A39U	0.03
C15A G27A G44A C45U	0.04
A14G G21C G22C G30U C31U	0.45
G36C G44C C45A	0.02
G2U C13A C18G	0.06
G1C G21U G40U	0.05
G19C G29U U34G	0.05
G2C C10A G22A C23G	0.05

Variant	self-cleavage
A14C C23U C42U	0.17
G1U C8A U20G G21U U38G	0.02
A12C A25C C37G C42U G44C	0
C10A A26U G33U A41G	0.01
A6C C8U C13G C15U U32A	0.07
G5A A11C C31A G36C A41U C46G	0.01
G17A A26U G35C U38C	0.01
A24G C31A C45G	0.05
G5A A16U U38G G44A	0.03
A12G C13U A41G	0.03
G22C G35C U38A A41C	0.06
G2U A24G U43C G44A	0.04
G5C A6G G30C G40A	0.01
G17A G21C A24U C31U	0.26
G2C A4G A6G A11G A41C	0.02
G17C G27U G30A C37A A39U	0.03
C13U G19A A24U A39G	0.03
C8U A14U G21U C42A	0.12
A16U C31G U34A C37A	0.07
G19A A26U U34C	0.22
U32A G35C A41G	0.04
C10U C18A G19U	0.42
G1U G5A U9A C13G G17U A24C	0.03

Reference: the RNAGym collection of RNA variant scans (doi:10.7554/elife.90254)
